Assay results: PubChem BioAssay AID1347417 (National Center for Advancing Translational Sciences (NCATS), 2020)
The campaign covered roughly 120,000 compounds. About 5,300 (4.4%) were called active. The inconclusive results got no clear call from the source; some entries with a clear call stand among them for comparison. Calls come from the whole dose curve; as a rule, active = well fitted inhibition curve with a large enough effect; inconclusive = small, poorly fitted or top-dose-only effect; inactive = no such curve, though single readings can be large or run the other way. Where the call is inconclusive, the potency comes from a doubtful curve fit.

assay: qHTS Primary assay for Inhibitors of Plasmodium falciparum Dd2 growth in vitro; note: nearly all actives have a fitted effect of over 65% in size;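 for activity, negative = inhibition: plate controls were DMSO vehicle for no effect and reference drug for full effect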; details: P. falciparum Dd2 growth, SYBR Green, 72 h; activity, negative = inhibition: at 28.9 µM (top of the series) unless noted; series mostly up to 28.9 µM
In short: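 Infected erythrocytes (Dd2, 0.3% parasitemia, 2.5% hematocrit final) are added to compound in RPMI-1640/Albumax II medium, grown 72 h at 37C in low oxygen, then lysed with saponin/Triton-X containing SYBR Green and read by fluorescence.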
Potency is the fitted concentration of half-maximal effect; tags give direction and shape of the fitted curve.

**Q.** Which Potency does the source give for `CN(Cc1ccc(F)cc1)Cc1cccnc1` here?
**A.** inconclusive: 20 µM [inhibitor, single point]

**Q.** Which Potency does the source give for `CC(C)(C)n1ccc(C(=O)N2CCN(c3cccc(Cl)c3)C(=O)C2)c1` here?
**A.** inactive

**Q.** With `Cc1ccc(S(=O)(=O)N2CCCN(C)c3ccccc32)cc1Cl` as the compound, how does the Potency read?
**A.** inconclusive: 11.2 µM [inhibitor, single point]

**Q.** For `Cc1ccc(NC(=O)c2c(NC(=O)Cc3ccccc3)sc3c2CCCC3)cc1`, which Potency is on record?
**A.** inconclusive: 8.91 µM [inhibitor, single point]

**Q.** Which Potency does the source give for `CCC(=O)C1=C(c2ccc(OC)c(OC)c2)N(C(=O)CC)n2c(CC)nnc2S1` here?
**A.** active: 1.41 µM

**Q.** With `COc1ccc(C(=O)NC2CCN(c3cnn(CC4CC4)c(=O)c3)CC2)cc1` as the compound, how does the Potency read?
**A.** inconclusive: 3.98 µM [inhibitor, full curve, poor fit]

**Q.** With `CCOc1ccccc1CNC(=O)C(C)C1CCOCC1` (stereo not drawn) as the compound, how does the Potency read?
**A.** inactive

**Q.** Which Potency does the source give for `COC(=O)[C@@H]1Cc2ncn(Cc3ccc(OC)cc3)c2CN1Cc1ccc(OC)cc1` here?
**A.** inconclusive: 3.55 µM [inhibitor, single point]

**Q.** For `O=C(O)C1CCN(C(=O)N2CC3CC(C2)[C@H]2CCCC(=O)N2C3)CC1` (stereo partly drawn), which Potency is on record?
**A.** inactive

**Q.** With `CCCS(=O)(=O)N[C@H]1C[C@@H](c2nc(-c3ccc(OC)cc3)no2)N(C)C1` as the compound, how does the Potency read?
**A.** inconclusive: 11.2 µM [inhibitor, partial curve, poor fit]

**Q.** For `CC(C)Oc1cccc(C2CC(=O)Nc3cc4c(cc32)OCO4)c1` (stereo not drawn), which Potency is on record?
**A.** inactive

**Q.** With `C[S+](=O)([O-])N1CC2(Cc3ccccc31)CN(C(=O)c1cccc(Cl)c1)C2` as the compound, how does the Potency read?
**A.** inconclusive: 7.08 µM [inhibitor, single point]

**Q.** For `CCNC(=O)C1CC(c2ccc(CC)cc2)CN(C(=O)c2ccoc2)C1` (stereo not drawn), which Potency is on record?
**A.** inconclusive: 2.82 µM [inhibitor, single point]

**Q.** With `COc1cc(CN2CC[C@H](c3nc4ccccc4o3)C2)cc(OC)c1OC` as the compound, how does the Potency read?
**A.** inconclusive: 22.4 µM [inhibitor, single point]

**Q.** Which Potency does the source give for `O=C(N[C@H]1CCN2C(=O)c3ccccc3NC(=O)[C@@H]2C1)c1cccs1` here?
**A.** inconclusive: 0.794 µM [inhibitor, full curve, poor fit]

**Q.** Which Potency does the source give for `Cc1ccc(Cl)cc1N1CCN(C(=O)CCCn2c(=O)[nH]c3ccc(Br)cc3c2=O)CC1` here?
**A.** inconclusive: 8.91 µM [inhibitor, single point]

**Q.** For `COCCNC(=O)c1nc(-c2ccc(Cl)cc2)c2ccccn12`, which Potency is on record?
**A.** inconclusive: 31.6 µM [inhibitor, single point]

**Q.** With `O=C1N(C2CCNCC2)C(c2ccncc2)C12CCCCC2` (stereo not drawn) as the compound, how does the Potency read?
**A.** inconclusive: 10 µM [inhibitor, single point]

**Q.** For `CN1C(=O)C2(CCN(C(=O)CC3CCCC3)CC2)c2ccccc21`, which Potency is on record?
**A.** inconclusive: 6.31 µM [inhibitor, single point]

**Q.** For `O=C(CCC1CCN(C(=O)c2ccccc2)CC1)NCCCN1CCCc2ccccc21`, which Potency is on record?
**A.** inconclusive: 17.8 µM [inhibitor, single point]

**Q.** With `N#Cc1ccc(CN2CC(N3CCc4ccccc43)C2)cc1` as the compound, how does the activity, negative = inhibition read?
**A.** inconclusive: -41.7% [inhibitor]

**Q.** Which Potency does the source give for `Cc1ncc2c(N3CC4CCC(C3)N4CC(F)(F)F)nc3ccccc3n12` here?
**A.** active: 5.01 µM

**Q.** For `COCCN1CCNc2nc(COc3ccc(Cl)cc3OC)n(Cc3ccccc3)c2C1=O`, which Potency is on record?
**A.** inactive

**Q.** For `O=C(O)C[C@@H]1CCN(C(=O)C2CCCCC2)C[C@@H]1CCN1CCOCC1`, which Potency is on record?
**A.** inconclusive: 0.891 µM [inhibitor, full curve, poor fit]

**Q.** With `CN1CCC(C(=O)N2Cc3ccccc3CC3(CCCN(Cc4cccnc4)C3)C2)CC1` (stereo not drawn) as the compound, how does the Potency read?
**A.** active: 8.91 µM

**Q.** With `CCCN1CCCC2(Cc3ccccc3CN(C(=O)c3c(C)noc3C)C2)C1` (stereo not drawn) as the compound, how does the Potency read?
**A.** inconclusive: 10 µM [inhibitor, single point]

**Q.** Which Potency does the source give for `O=C1NC2(CCN(Cc3cccc4ccccc34)CC2)COc2ccccc21` here?
**A.** inconclusive: 3.55 µM [inhibitor, partial curve, poor fit]

**Q.** For `O=C(NCc1cccnc1)C1CCN(C(=O)N2CC3CC(C2)[C@H]2CCCC(=O)N2C3)CC1` (stereo partly drawn), which Potency is on record?
**A.** inactive

**Q.** With `Cc1cc(C)cc(NC(=O)Cn2c(=O)n(CCC(C)C)c(=O)c3cccnc32)c1` as the compound, how does the Potency read?
**A.** inactive

**Q.** Which Potency does the source give for `COc1cccc(CNC(=O)CCCn2c(=O)c3cccn3c3ccc(F)cc32)c1OC` here?
**A.** inconclusive: 17.8 µM [inhibitor, single point]

**Q.** Which Potency does the source give for `COc1cccc(-c2nc(S(=O)(=O)c3ccc(C)cc3)c(NCc3ccccc3)o2)c1` here?
**A.** inconclusive: 7.94 µM [inhibitor, single point]

**Q.** Which Potency does the source give for `CCN1CCN(c2cc(C)c3cc(NC(=O)c4cc(OC)c(OC)c(OC)c4)ccc3n2)CC1` here?
**A.** inconclusive: 1.12 µM [inhibitor, full curve, poor fit]

**Q.** With `CCOc1ccc(-c2nc(CSCC(=O)NCCc3ccccc3)c(C)o2)cc1` as the compound, how does the Potency read?
**A.** inconclusive: 17.8 µM [inhibitor, single point]

**Q.** For `CCCc1nnc(C[C@@H]2C[C@@H](C(C)C)[C@H](CN3CCN(c4ncccn4)CC3)C=C2C)o1`, which Potency is on record?
**A.** inconclusive: 3.16 µM [inhibitor, full curve, poor fit]

**Q.** With `O=C(Nc1ccc(F)cc1)c1ccc(Cn2ccn3nc4c(c3c2=O)CCCC4)cc1` as the compound, how does the Potency read?
**A.** inconclusive: 17.8 µM [inhibitor, single point]

**Q.** Which activity, negative = inhibition does the source give for `CCOC(=O)C1CCN(c2csc3ccc(C)cc3c2=O)CC1` here?
**A.** inconclusive: -49.7% [inhibitor] [at 0.594 µM]

**Q.** Which Potency does the source give for `COc1ccccc1CCNC(=O)C1CC(=O)N(c2n[nH]c3cccc(F)c23)C1` (stereo not drawn) here?
**A.** inactive

**Q.** For `COc1ccc(-c2nc3ccccc3o2)cc1NC(=O)COc1c(C)cc(Cl)cc1Cl`, which Potency is on record?
**A.** inconclusive: 0.126 µM [inhibitor, full curve, poor fit]

**Q.** Which Potency does the source give for `CCc1cccc(NC(=O)Cn2c(=O)n(Cc3ccccc3)c(=O)c3c(C)c(C(=O)N(C)C)sc32)c1` here?
**A.** inconclusive: 6.31 µM [inhibitor, partial curve, poor fit]

**Q.** With `Cc1ccc(Cl)cc1NC(=O)CN1C(=O)NC(c2ccc(Cl)cc2)C2=C1COC2=O` (stereo not drawn) as the compound, how does the Potency read?
**A.** inconclusive: 12.6 µM [inhibitor, single point]

**Q.** With `Cc1cccc(NC(=O)CSc2nc(C)cc(C)c2C(=O)Nc2ccc(Cl)cc2)c1` as the compound, how does the Potency read?
**A.** inconclusive: 17.8 µM [inhibitor, single point]

**Q.** With `CNC(=O)CCn1ncc2cc(OCc3ccccc3-c3c(F)cccc3OC)ccc21` as the compound, how does the Potency read?
**A.** inconclusive: 3.55 µM [inhibitor, single point]

**Q.** With `COc1cc(NC(=O)CN2C(=O)C(c3ccc(C)cc3)=NC23CCCCCC3)cc(OC)c1` as the compound, how does the Potency read?
**A.** inconclusive: 20 µM [inhibitor, single point]

**Q.** Which Potency does the source give for `CC(=O)Nc1c(C)nn(-c2ccccc2)c1N1CCC(C(=O)Nc2ccc(Cl)cc2C)CC1` here?
**A.** inconclusive: 7.08 µM [inhibitor, partial curve, poor fit]

**Q.** Which Potency does the source give for `COc1cccc(S(=O)(=O)N2CCCCCNC(=O)CC2c2ccccc2)c1` (stereo not drawn) here?
**A.** inconclusive: 7.94 µM [inhibitor, partial curve]

**Q.** Which Potency does the source give for `Cc1ccc(-c2nc3ccccc3[nH]2)cc1NC(=O)COc1ccc(Cl)cc1Cl` here?
**A.** inconclusive: 17.8 µM [inhibitor, single point]

**Q.** Which Potency does the source give for `CN1C(=O)C2(CCN(Cc3cccn3C)C2)c2ccccc21` (stereo not drawn) here?
**A.** inconclusive: 11.2 µM [inhibitor, partial curve, poor fit]

**Q.** With `Cc1ccccc1-n1nc(C)c([C@H]2C=C[C@@H](OC(=O)N[C@H](C)c3ccccc3)C2)c1C` as the compound, how does the Potency read?
**A.** inactive

**Q.** Which Potency does the source give for `Cn1ccnc1CN1CCOC[C@H](Oc2ccc(C(F)(F)F)cc2)C1` here?
**A.** inconclusive: 12.6 µM [inhibitor, single point]

**Q.** With `COc1cc2c(cc1OCc1ccccc1)N([S+](=O)([O-])c1cccc3cccnc13)CC21CCN(C)CC1` as the compound, how does the Potency read?
**A.** inconclusive: 3.98 µM [inhibitor, single point]

**Q.** Which Potency does the source give for `COc1ccc(OC)c(NC(=O)CSc2nccn2-c2cc(C)cc(C)c2)c1` here?
**A.** inconclusive: 8.91 µM [inhibitor, single point]

**Q.** With `CN1C[C@@H](NS(=O)(=O)c2ccccc2)C[C@H]1c1nc(Cc2ccccc2)no1` as the compound, how does the Potency read?
**A.** inconclusive: 10 µM [inhibitor, partial curve, poor fit]

**Q.** For `COc1ccc(-c2cc(C(=O)NCc3c(C)cc(C)[nH]c3=O)c3c(c2)N(C(C)C)CCO3)cc1`, which Potency is on record?
**A.** inconclusive: 0.316 µM [inhibitor, full curve, poor fit]

**Q.** With `C=CCNC(=O)N1CC[C@H]2CC(=O)N(C3CCCCC3)CC[C@H]2C1` as the compound, how does the Potency read?
**A.** inactive

**Q.** For `c1cc2c(cc1CN1CCCC1)CNCCO2`, which Potency is on record?
**A.** inconclusive: 17.8 µM [inhibitor, single point]

**Q.** With `O=C(Nc1ccccc1)N1CCC(N2CC3CC(C2)[C@H]2CCCC(=O)N2C3)CC1` (stereo partly drawn) as the compound, how does the Potency read?
**A.** inactive

**Q.** For `c1ccc(CN2CCNc3cnc(Nc4ccncn4)cc3C2)cc1`, which Potency is on record?
**A.** inactive

**Q.** Which Potency does the source give for `COc1ccc(N2C(=O)C3(CCCCC3)C2C(=O)NCc2nc3ccccc3n2C)cc1` (stereo not drawn) here?
**A.** inconclusive: 12.6 µM [inhibitor, single point]

**Q.** For `N#Cc1ccc(CN2CCn3c(nn(-c4cccc(Cl)c4)c3=O)C2)cc1`, which Potency is on record?
**A.** inconclusive: 11.2 µM [inhibitor, partial curve, poor fit]

**Q.** With `O=C(NCCn1cccc1-c1nc(-c2ccc3c(c2)OCO3)no1)c1ccc2c(c1)OCO2` as the compound, how does the Potency read?
**A.** active: 12.6 µM

**Q.** For `COC(=O)c1cc2oc(C)cc2n1CC(=O)Nc1ccc(OC)c(OC)c1`, which Potency is on record?
**A.** inconclusive: 8.91 µM [inhibitor, partial curve, poor fit]

**Q.** For `C#C[C@H]1CN2CC[C@H]1C[C@@H]2CNC(=O)C1CCCCC1`, which Potency is on record?
**A.** inconclusive: 3.16 µM [inhibitor, full curve, poor fit]

**Q.** Which Potency does the source give for `Cc1ccc(Cn2c3ccccc3c3cnn(CC(=O)N4CCCCCC4)c(=O)c32)cc1` here?
**A.** inconclusive: 17.8 µM [inhibitor, single point]
